In PubChem BioAssay AID1240 (Sanford-Burnham Center for Chemical Genomics, 2008):
Among all 50,000 compounds or so, about 800 (1.6%) showed an effect of 50% or more. Some of the results follow.

These compounds were tested against Bcl-2-like protein 10 (Homo sapiens) (UniProt Q9HD36) (assay: TR3 peptide-Bcl-B binding displacers, biochemical primary FP assay, phenotype converters (AID 1240;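 further: 0% = Bcl-B with tracer peptide and DMSO and 100% = tracer peptide lacking Bcl-B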)). Settings: GST-Bcl-B / FITC-TR3 peptide fluorescence polarization; stronger effect = higher value; compound at 3.75 mg/L.
Sequence of UniProt Q9HD36 (Q9HD36 whole entry, looked up): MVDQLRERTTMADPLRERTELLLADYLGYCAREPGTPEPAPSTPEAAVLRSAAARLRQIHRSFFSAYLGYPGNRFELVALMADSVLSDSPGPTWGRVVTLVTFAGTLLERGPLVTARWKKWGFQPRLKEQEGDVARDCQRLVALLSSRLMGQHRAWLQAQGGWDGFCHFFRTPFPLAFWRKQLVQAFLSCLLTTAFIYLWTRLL
Work on `O=C(Nc1ccc(Cl)c(Cl)c1)Nc1ccccc1C(=O)O` yielded a displacement of 12.8%.
Work on `CCOCCOC(=O)C1=C(C)NC2=C(C(=O)CC(C)(C)C2)C1c1cc([N+](=O)[O-])ccc1Cl` (stereo not drawn) yielded a displacement of -4.6%.
With `Cc1ccccc1OCC(=O)O/N=C(\N)Cc1cccc2ccccc12` the displacement was 14.8%.
`NC(=O)c1cccc(N=Cc2ccccc2[N+](=O)[O-])c1` gave a displacement of -9.8%.
In the case of `O=C(CSc1nc2ccc(N3C(=O)c4ccccc4C3=O)cc2s1)Nc1ccc([N+](=O)[O-])cc1`, the displacement is reported as -36.3%.
In the case of `CC(=O)c1cccc(N2C(=O)c3ccc(Oc4ccc([N+](=O)[O-])cc4)cc3C2=O)c1`, the displacement is reported as 19.1%.
Work on `O=C1/C(=C/c2ccc(Br)cc2)SC(=S)N1Nc1ccccc1` yielded a displacement of -1.3%.
With `COc1ccc2c(c1)-c1c(ssc1=Nc1ccc(S(=O)(=O)Nc3nccs3)cc1)C(C)(C)N2` the displacement was 4.6%.
`Cc1cc(Cl)ccc1NC(=O)C(N)=O` was tested, and the displacement was 1.8%.
With `Cc1ccc(S(=O)(=O)Nc2ccccc2I)cc1[N+](=O)[O-]` the displacement was 17.1%.
Work on `Cc1ccc(N(CC(=O)N=Nc2c(O)[nH]c3ccccc23)S(=O)(=O)c2ccccc2)cc1` yielded a displacement of 13.9%.
For `CCOC(=O)c1c(NC(=O)COc2ccccc2C)sc(C(=O)N2CCCCC2)c1C`, the displacement was -2.3%.
`O=C(O)c1cc(NS(=O)(=O)c2ccccc2)cc(C(=O)O)c1` was tested, and the displacement was 3.9%.
`Cc1cccc(NC(=O)c2c(NC(=O)c3ccc([N+](=O)[O-])cc3)sc3c2CCCC3)c1` showed a displacement of 3.7%.
`Cc1ccccc1OCC(=O)Nc1ccc(-c2ccccc2)cc1` gave a displacement of 13.2%.
Work on `Cc1ccc(S(=O)(=O)N/N=C/c2ccc([N+](=O)[O-])cc2)cc1` yielded a displacement of 0.3%.
Compound `Cc1ccccc1C(=O)NN1C(=O)/C(=C\c2cccnc2)SC1=S` has a displacement of 15.3%.
In the case of `COc1ccc2oc(C)c(C(C)=O)c2c1`, the displacement is reported as 13%.
`COc1ccc(S(=O)(=O)N(CCc2ccccc2)CC(=O)Nc2ccc(C)c(C)c2)cc1` was tested, and the displacement was -23.7%.
`Cc1ccc(N2CCN(C(=S)Nc3ccccc3)CC2)cc1` gave a displacement of 2.6%.
With `CCOC(=O)C1CCN(C2CC(=O)N(c3cccc(Br)c3)C2=O)CC1` (stereo not drawn) the displacement was 11.3%.
With `CCN(CC)S(=O)(=O)c1cc(C(=O)c2ccc(Br)cc2)ccc1C` the displacement was -9%.
With `O=C(OC1CCCCC1)c1ccc(NS(=O)(=O)c2ccc([N+](=O)[O-])cc2)cc1` the displacement was 0.7%.
In the case of `Cn1c(/C=C/c2cn(C)c3ccccc23)nc2ccccc2c1=O`, the displacement is reported as 40.9%.
For `CCOC(=O)CC(NC(=O)c1nc[nH]c1[N+](=O)[O-])C(=O)OCC` (stereo not drawn), the displacement was -0.7%.
Work on `O=C1CSC(=S)N1/N=C/c1ccccc1OS(=O)(=O)c1ccccc1` yielded a displacement of 12.7%.
With `CC(=O)Nc1cc(-c2ccc(F)cc2)[nH]n1` the displacement was 14.7%.
In the case of `CC(C)Oc1ccc(CN(C)C)cc1CN(C)C`, the displacement is reported as 2.1%.
`Cc1ccc(NC(=O)C2CC(=O)N(c3ccc(F)cc3)C2)c(C)c1` (stereo not drawn) was tested, and the displacement was -11%.
Compound `COc1ccc(C(=O)N(c2ccccc2)C2CC(C)Nc3ccccc32)cc1` (stereo not drawn) has a displacement of 14.5%.
Work on `O=C(COC(=O)c1cccc(S(=O)(=O)N2CCOCC2)c1)c1ccccc1` yielded a displacement of -8.5%.
`CCCN(CCC)C(=O)CC12CC3CC(C1)CC(CC(=O)N(CCC)CCC)(C3)C2` was tested, and the displacement was 10.5%.
In the case of `Cc1ccc(C(C)C)c(OCC(=O)Nc2ccc(Cl)c(NC(=O)c3ccco3)c2)c1`, the displacement is reported as 17.2%.
`COC(=O)C1=C(C)N(c2ccc(Cl)cc2)C(=O)/C1=C\c1ccccc1O` showed a displacement of -10.3%.
`N/C(Cc1cccc2ccccc12)=N\OC(=O)c1cccs1` was tested, and the displacement was 98.4%.
For `NNS(=O)(=O)c1ccc2c(c1)Cc1cc(S(=O)(=O)NN)ccc1-2`, the displacement was 15.4%.
In the case of `Cc1cccc(C(C)C)c1NC(=O)c1cccc(Br)c1`, the displacement is reported as 0.6%.
Compound `CCN(CC)CCCCCCOc1ccccc1C(C)(C)C` has a displacement of 13.1%.
`COc1ccccc1CNC(=O)C(=O)NCC1CCCO1` (stereo not drawn) gave a displacement of 2.8%.
For `COc1cc(NC(=O)c2ccc(-c3ccc(Cl)cc3)o2)ccc1NC(=O)c1ccco1`, the displacement was -6.5%.
For `COc1ccc(C2=C/C(=C\c3ccccc3[N+](=O)[O-])C(=O)O2)cc1`, the displacement was -1.5%.
With `Clc1ccccc1OCCCN1CCOCC1` the displacement was 6.3%.
`COc1cc([N+](=O)[O-])ccc1NC(=S)NC(=O)c1ccc(Cl)cc1` was tested, and the displacement was -5.8%.
`COC(=O)CN(c1ccc(F)cc1)S(C)(=O)=O` showed a displacement of 6.4%.
Compound `Cc1ccc2nc(NC(=O)c3ccccc3Br)sc2c1` has a displacement of 4.5%.
`O=C1OC(Oc2ccc(Cl)cc2Cl)(c2ccccc2)c2ccccc21` (stereo not drawn) showed a displacement of 5.8%.
Compound `Cc1ccc(/C=N/N2CCN(Cc3ccc(Cl)cc3)CC2)s1` has a displacement of -3.8%.
`CCOC(=O)N/N=C(\C)C12CC3CC(CC(C3)C1)C2` gave a displacement of 1.6%.
`CCOC(=O)COc1ccc(/C=C(/C#N)C(=O)Nc2cccc(Br)c2)cc1` was tested, and the displacement was -8.9%.
In the case of `CN(C)CCN1C(=O)C(=O)/C(=C(/O)c2ccccc2)C1c1cccc(F)c1` (stereo not drawn), the displacement is reported as 5.5%.
In the case of `COc1ccccc1N1C(=O)S/C(=C\c2cccc(Br)c2)C1=O`, the displacement is reported as 12.8%.
In the case of `Cc1ccc(C)c(C(=O)c2ccccc2NC(=O)c2ccccn2)c1`, the displacement is reported as -2.8%.
`COCCOC(=O)C1=C(C)NC(=O)NC1c1ccc(N(C)C)cc1` (stereo not drawn) was tested, and the displacement was 2.6%.
For `Cc1nc2c(-c3ccccc3)cnn2c(C(C)(C)C)c1C`, the displacement was -0.1%.
`CCc1ccccc1NC(=O)CN(c1ccc(C)c(Cl)c1)S(C)(=O)=O` was tested, and the displacement was 5.6%.
For `COc1ccc(N(CC(=O)Nc2c(C)cccc2C)S(=O)(=O)c2ccccc2)cc1Cl`, the displacement was 5.9%.
For `O=C(O)c1cnn2c1NC(c1ccc(Br)cc1)CC2C(F)(F)F` (stereo not drawn), the displacement was 4.8%.
Work on `CC(=O)c1ccc(NC(=O)c2sc3ccccc3c2Cl)cc1` yielded a displacement of 12.2%.
For `COc1cccc(N2C(=O)C(=Cc3ccc(OC)cc3OC)C(=O)NC2=S)c1`, the displacement was 8.5%.
`COc1ccc(N2C(=O)CC(Sc3nnc(-c4ccccc4)n3-c3ccccc3)C2=O)cc1` (stereo not drawn) was tested, and the displacement was 4.5%.
With `Cc1cc(/C=C2\C(=O)NC(=O)N(C)C2=O)c(C)n1-c1ccc(N(C)C)cc1` the displacement was 124%.
`Cc1ccc(N2CCN(C(=O)Nc3ccc(Cl)cc3)CC2)cc1` was tested, and the displacement was 12.3%.
In the case of `O=C(Nc1ccccc1)C1C2C3CCC(C3)C12` (stereo not drawn), the displacement is reported as 4%.
With `O=C(Nc1cccc(S(=O)(=O)c2cccc(NC(=O)C(F)(F)F)c2)c1)C(F)(F)F` the displacement was 0.8%.
In the case of `Cc1ccc(NC(=O)CCCOc2ccccc2)c(Br)c1`, the displacement is reported as 9.5%.
Compound `O=C(CSCc1ccccc1)Nc1cccc2c1C(=O)N(c1ccccc1)C2=O` has a displacement of -3.4%.
`OCCCn1c(-c2ccccc2)cn2c3ccccc3nc12` was tested, and the displacement was 5.1%.
For `CCCOc1ccc(/C=C2\C(=O)N(c3ccc(S(N)(=O)=O)cc3)N=C2C)cc1OC`, the displacement was -2.3%.
